# Whole data set: some 110,000 compounds, median “z-score” near -0.1, cut for the highest 2% near 2. The list shows a part of the results. The source made the active and inactive calls.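 The calls were made as follows: active = z-score in the third read window above 3 or below -3; inactive = the rest.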
# Target: Metabotropic glutamate receptor 8 (Rattus norvegicus) (UniProt P70579)
# Assay: mGluR8 Gi/Go-coupled signaling modulation – cell-based, rat, thallium flux, HTS, primary screen (AID 488969)
# Conditions: HEK293 rat mGluR8, GIRK (G protein-gated inwardly rectifying potassium channel) thallium flux, FluoZin2; at 10 µM; stronger effect = higher value; submaximal glutamate (EC20) added with thallium
# Sequence of UniProt P70579 (P70579 whole entry, looked up): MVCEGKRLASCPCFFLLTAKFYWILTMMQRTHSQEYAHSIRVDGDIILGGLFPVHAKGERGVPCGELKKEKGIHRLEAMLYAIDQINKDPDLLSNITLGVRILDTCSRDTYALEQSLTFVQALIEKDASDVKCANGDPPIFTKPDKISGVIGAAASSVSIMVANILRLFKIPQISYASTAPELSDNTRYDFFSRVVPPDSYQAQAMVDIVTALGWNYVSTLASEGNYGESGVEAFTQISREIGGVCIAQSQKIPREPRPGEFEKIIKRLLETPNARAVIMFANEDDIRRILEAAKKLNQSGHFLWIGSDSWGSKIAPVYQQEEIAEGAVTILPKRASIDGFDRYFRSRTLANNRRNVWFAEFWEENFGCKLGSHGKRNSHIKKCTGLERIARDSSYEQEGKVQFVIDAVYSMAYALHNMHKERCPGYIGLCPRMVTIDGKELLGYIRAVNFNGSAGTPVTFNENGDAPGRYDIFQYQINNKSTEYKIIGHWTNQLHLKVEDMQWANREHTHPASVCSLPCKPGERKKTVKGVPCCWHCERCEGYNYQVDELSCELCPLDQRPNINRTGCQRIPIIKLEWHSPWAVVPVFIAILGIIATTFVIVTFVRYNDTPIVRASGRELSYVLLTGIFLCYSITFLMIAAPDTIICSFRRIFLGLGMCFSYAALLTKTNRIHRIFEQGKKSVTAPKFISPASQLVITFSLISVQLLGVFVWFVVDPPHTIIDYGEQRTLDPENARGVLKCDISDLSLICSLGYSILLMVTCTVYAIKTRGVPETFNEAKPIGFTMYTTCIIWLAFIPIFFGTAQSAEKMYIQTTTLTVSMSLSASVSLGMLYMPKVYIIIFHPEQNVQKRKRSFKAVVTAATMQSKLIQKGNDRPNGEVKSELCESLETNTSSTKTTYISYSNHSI
row,SMILES,z-score
1,CCNC(=S)N1CCn2c(nc3ccccc32)C1,-0.38
2,CCN(CC)S(=O)(=O)c1ccc(OC)c(NC(=S)Nc2cc(C)ccc2C)c1,0.0642
3,CSc1n[nH]c(-c2sccc2OCc2ccc(C)cc2)n1,0.203
4,Oc1ccc2ccccc2c1C=Nc1ccc(N2CCOCC2)cc1,-0.644
5,O=C(NCC(c1ccco1)N1CCN(c2ccccc2)CC1)OCc1ccccc1 (stereo not given),-0.199
6,COC(=O)c1ccc(C(=O)OC)c(NC(=O)CSc2nnc(-c3ccccc3Cl)o2)c1,-0.149
7,CCCc1cc(=O)[nH]c(/N=C(/NC(=O)C(C)N2C(=O)c3ccccc3C2=O)Nc2ccccc2)n1 (stereo not given),-0.099
8,Cc1nn(Cc2ccc(C(=O)n3cccn3)o2)c(C)c1Br,-0.832
9,COC(=O)c1c(C(=O)OC)c(-c2ccc(C)cc2)n2c1CCC2,-1.36
10,Cc1cc(C)cc(N(CC(=O)N2CC=C(c3ccccc3)CC2)S(=O)(=O)c2c(C)noc2C)c1,0.0366
11,Cc1noc(C)c1C(=O)NCCC1=CCCCC1,-0.0916
12,CC1=Nc2cccc3cccc(c23)N1C,-0.00241
13,CCOCCCNC(=O)Cc1c(C(=O)O)[nH]c2ccc(Cl)cc12,0.12
14,COc1ccc(Nc2nnc(SCC(=O)Nc3cc(C)on3)s2)cc1,-1.08
15,CCOc1ccc2nc(SC3CC(=O)N(c4ccccc4)C3=O)sc2c1 (stereo not given),0.171
16,CCOCC(=O)N1CCN(c2ccc(F)cc2)CC1,0.0288
17,Cc1ccc(CCc2nnc(SCC(=O)Nc3cc(Cl)ccc3Cl)n2-c2ccccc2)o1,-0.585
18,COc1ccc(N2CCN(C(CNC(=O)OCc3ccccc3)c3ccco3)CC2)cc1 (stereo not given),-0.203
19,c1ccc(C2=Nc3cccc4cccc(c34)N2)cc1,-0.647
20,CCC(C)N=C1SCC(C)(/C=N/O)S1 (stereo not given),-0.0708
21,COc1ccc(C)cc1NC(=O)CN(Cc1nnc(-c2ccc(Cl)cc2)o1)C1CCCC1,0.145
22,O=C(Cn1cc2c(n1)CCCC2)N1CCCC1,0.266

row,SMILES,z-score
1,COc1ccc(/C=N/NC(=S)NCc2ccccc2)cc1OC,-0.135
2,CC1CC(c2ccccc2)n2nc(NC(=O)CCc3ccccc3)nc2N1 (stereo not given),0.229
3,O=C(O)C(Oc1ccc2c3c(c(=O)oc2c1)CCC3)c1ccccc1 (stereo not given),-0.902
4,Cc1cccc(Cn2c(=O)n(-c3ccc(CC(=O)NCc4ccco4)cc3)c(=O)c3sccc32)c1,-0.101
5,Clc1ccccc1Cn1nnc2c(N3CCOCC3)nc(C3CC3)nc21,0.257
6,O=C(COc1ccccc1)Nc1ccc2c(c1)Cc1cc(NC(=O)COc3ccccc3)ccc1-2,-0.155
7,Cc1nn(-c2ccccc2C(=O)O)c(=O)c2ccccc12,0.0122
8,Cc1ccc(O)c(N=Cc2ccc(C)s2)c1,-0.0821
9,Cn1/c(=N/NC(=O)c2cccc(OC(F)F)c2)sc2ccccc21,0.439
10,O=C(CSc1nnc(-c2cccnc2)n1-c1ccc(F)cc1)NCc1ccc2c(c1)OCO2,-0.123
11,Cc1ccc(CNC(=O)c2cc3c(=O)n(C)c4ccccc4c3n2C)o1,-0.2
12,CC(C)(C)n1ncc2c(=O)n(CC(=O)NCc3ccco3)cnc21,-0.0912
13,O=S(=O)(/N=C(\c1ccccc1)N1CCOCC1)c1cccs1,-0.275
14,CCCOC(=O)C1[C@H]2C(=O)N(CC3CCCO3)C[C@]23C=C[C@H]1O3 (stereo not given in full),0.0385
15,O=C(Nc1ccccc1N1CCCC1)c1ccc(Br)o1,-0.726
16,Cn1c2ccccc2c2c(C(=O)N3CCN(c4ccccc4)CC3)cn(C3CCCC3)c(=O)c21,-0.462
17,COc1ccccc1CNCC(=O)Nc1ccc(N2CCOCC2)cc1,-0.233
18,CCn1c(SCC(=O)NCC2CCCO2)nnc1-c1ccccc1 (stereo not given),-0.0704
19,CC(C)c1nccn1S(=O)(=O)c1cc(Cl)ccc1Cl,-0.163
20,CC(=O)Nc1nnc(SCc2ccc(F)cc2)s1,-0.167
21,CC1=C(C(=O)OCc2ccccc2)C(c2cccnc2)n2ncnc2N1 (stereo not given),-0.355
22,Cc1cccc(C)c1OCc1nnc(SCC(=O)NCCc2ccccc2)o1,-0.0648

row,SMILES,z-score
1,CCOc1ccc(/C(O)=C2/C(=O)C(=O)N(CC3CCCO3)C2c2ccco2)cc1 (stereo not given),-0.17
2,COc1ccc(CN2CCn3ncc(C(=O)Nc4cc(C)cc(C)c4)c3C2=O)cc1,-0.164
3,Cc1ccsc1C(=O)N/N=C/C=C/c1ccccc1[N+](=O)[O-],-0.106
4,CCN(CC(=O)Nc1ccc2c(c1)OCCO2)S(=O)(=O)c1ccc(C)cc1,-0.159
5,CC(C)COc1ccc(CN=C(N)N=C(N)N)cc1Cl,0.407
6,O=C1N2CCSC2=NC1(Nc1nccs1)C(F)(F)F (stereo not given),-0.385
7,COc1ccc(CCCc2nnc(SCC(=O)N/N=C\c3ccc(O)c(OC)c3)o2)cc1C,-0.173
8,COc1cc(/C=C(/C#N)C(=O)Nc2ccc(C)cc2)ccc1Oc1nc(Cl)ncc1F,-0.0861
9,CC(C)[C@@H]1CC[C@@H](C)c2c(-c3ccccc3)n[nH]c21,-0.123
10,COc1ccccc1C(=O)Nc1ccc(S(=O)(=O)N2CCCC2)cc1,1.5
11,CC(NC(=O)CN1CCCC1)C12CC3CC(CC(C3)C1)C2 (stereo not given),0.259
12,Cc1ccc(N(C(C)C(=O)Nc2ccc(S(=O)(=O)N3CCOCC3)cc2)S(C)(=O)=O)cc1C (stereo not given),0.173
13,Cc1nnc(Cl)c2nn(-c3ccccc3)c(C)c12,-0.154
14,COc1ccc2nc(N3CCC(O)CC3)c(C#N)cc2c1,0.0837
15,O=C(CN1CCN(c2ccc(F)cc2)CC1)N1CCC(Cc2ccccc2)CC1,-0.162
16,O=C(O)c1[nH]c2ccccc2c1-c1ccccc1,-0.254
17,CS(=O)(=O)N1CCN(c2ccc(NC(=O)c3ccc(-c4ccc(Cl)cc4)o3)cc2)CC1,0.22
18,Cc1ccn(S(=O)(=O)c2ccc(C(C)(C)C)cc2)n1,-0.368
19,CCc1ccc(/C=N/Nc2nn[nH]n2)cc1,-0.456
20,Cc1ccc(C(=O)NCC(=O)OCC(=O)c2c(N)n(C)c(=O)n(C)c2=O)s1,0.459
21,CCOC(=O)c1ccc(N2C(=O)CC(C(=O)OC)=C2C)cc1,-0.0579
22,CCN(CC(=O)Nc1ccccc1OC)C(=O)Cn1cnc2ccccc2c1=O,-0.0954

row,SMILES,z-score
1,O=Nc1c2nc3ccccc3n(O)c-2c2ccccc12,1.16
2,CCC(=O)Nc1nnc(SCCN2CCOCC2)s1,0.112
3,O=C(Nc1ccc(CN2CCCCC2)cc1)c1cccc(Br)c1,-0.404
4,COc1cccc(C2NC(CCSC)(C(=O)O)C3C(=O)N(C(C)C)C(=O)C23)c1O (stereo not given),-0.143
5,COc1ccc(OC)c(NC(=O)C2CCN(c3cc(-c4ccccc4)nc4ncnn34)CC2)c1,-0.764
6,COC(=O)CSc1nnc(-c2sc3cc(OC)ccc3c2Cl)n1C,-1.34
7,O=C(NC(=S)NCC1CCCO1)C(c1ccccc1)c1ccccc1 (stereo not given),-0.0494
8,CCCc1[nH][nH]c(=O)c1C(c1cccc(Cl)c1)C(C#N)C#N (stereo not given),-0.852
9,O=C(Nc1cnc2ccccc2c1)c1cccc(-n2cnnn2)c1,-0.963
10,CCCCC(=O)Nc1ccc(C(=O)Nc2ccc3c(c2)OCO3)cc1,-0.0978
11,CC(C)(C)c1ccc(S(=O)(=O)NCCOCC(F)(F)C(F)F)cc1,0.431
12,Cc1ccc(O)c(C2=NCCNC(C(F)(F)C(F)F)=C2)c1,-0.0269
13,CCCNS(=O)(=O)c1ccc(CCC(=O)NCc2ccc3c(c2)OCO3)cc1,0.303
14,Cn1c(SCC(=O)NCc2ccco2)nnc1-c1cccs1,-0.331
15,CC1(C)C2CCC1(CS(=O)(=O)Nc1ccc(S(=O)(=O)N3CCCC3)cc1)C(=O)C2 (stereo not given),-0.23
16,COc1ccc(Nc2nnc(SCc3cn4c(C)cccc4n3)s2)cc1,-0.206
17,Cc1nc2ccc(F)cc2cc1C(=O)NC(C)C,-0.436
18,COCCn1c(C)cc(C(=O)CSc2cc(C)c3ccc(OC)cc3n2)c1C,-0.282
19,O=C(CN1CCN(Cc2ccccc2)C1=O)NCCCN1CCOCC1,-0.108
20,CCN1CCC2(CC1)N=C(c1ccc(F)cc1)C(=S)N2C(=O)c1ccc(C)cc1,-0.201
21,Cc1noc(C)c1C(=O)N1CCN(Cc2ccc3c(c2)OCO3)CC1,-0.171
22,CCCCC(=O)Nc1ccc(C(=O)NNC(=O)c2cccs2)cc1,-0.305

row,SMILES,z-score
1,CCN(CC)S(=O)(=O)c1ccc(Cl)c(NC(=O)COc2ccccc2[N+](=O)[O-])c1,-0.253
2,O=C(O)c1cc(NCc2cccs2)ccc1N1CCOCC1,0.0293
3,COc1ccc(S(=O)(=O)Nc2ccccn2)c(C)c1C,0.0834
4,COc1ccc(CNC(N)=O)cc1OC,0.171
5,Cc1cccn2c(=O)c3cc(C(=O)NCc4ccco4)c(=N)n(C(C)C)c3nc12,-0.837
6,CCOC(=O)C1CCN(C(=O)CN(Cc2ccc(Cl)cc2)S(C)(=O)=O)CC1,-0.21
7,Cc1cc(C)c2oc(C(=O)Nc3ccc(S(=O)(=O)N4CCCC(C)C4)cc3)cc(=O)c2c1 (stereo not given),0.226
8,COCCN(Cc1cc2cc3c(cc2nc1Cl)OCO3)C(=O)Nc1ccccc1OC,1.64
9,COc1ccc(-c2c(C)n([O-])c(C)c(C)[n+]2=O)cc1,-1.27
10,Cc1ccn2cc(-c3ccc(NC(=O)c4ccco4)cc3)nc2c1,-0.263
11,CCOC(=O)C1CCCN(CC(O)COc2ccccc2C(C)=O)C1 (stereo not given),0.357
12,CCCC(=O)Nc1ccc2oc(-c3cccnc3)nc2c1,-0.502
13,O=C1C2C3C=CC(C2C(=O)N1CCCO)C1C2C(=O)N(CCCO)C(=O)C2C31 (stereo not given),0.343
14,Cc1ccccc1OCC(=O)O/N=C(\N)Cc1cccs1,active: 3.93
15,Cc1cc(C)cc(OCC(=O)NNC(=O)c2cc(C)[nH]n2)c1,-0.069
16,C=CCN=c1scc(-c2ccc(F)cc2)n1/N=C/c1ccccn1,0.191
17,COc1ccc(NC(=O)c2ccc(COc3ccccc3Br)o2)cc1OC,-0.964
18,CC(C)OC(=O)CSc1nnc(-c2cnccn2)n1Cc1ccco1,-0.0197
19,COc1ccc(C(C(=O)NC2CCCCC2)N(C(=O)c2cccs2)c2ccc3c(c2)OCO3)cc1 (stereo not given),-0.837
20,O=C(NCCCN1CCCC1)C1CCC(=O)N1C1CCCCC1 (stereo not given),-0.198
21,CC(=O)NC(=S)Nc1ccccc1C(=O)NC1CCCCC1,-0.0609
22,COc1ccc(Br)cc1C1Nc2ccccc2C(=O)N1NC(=O)c1ccncc1 (stereo not given),0.804

# Source: PubChem BioAssay AID488969 (Vanderbilt High Throughput Screening Facility, 2010)
